# Hit rate of the full screen: of about 43,000 compounds, about 200 (0.47%) were called active. Not shown: some 12% with an inconclusive outcome. The call rests on the fitted dose curve; in most records, active means well fitted cell-killing curve with a large enough effect; inconclusive means small, poorly fitted or top-dose-only effect, or effect the other way; inactive means flat fitted curve, though single readings scatter. The list shows a part of the results.
# Assay: Cell viability qHTS assay in S16 Pmp22-F2sN cells; further: nearly all actives have a fitted effect of over 65% in size
# Conditions: S16 Pmp22-F2sN Schwann cells viability, CellTiter-Glo, 24 h; series mostly up to 57.5 µM; activity change, negative = cytotoxicity: at the top concentration
# How it was run: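 Used to flag compounds lowering reporter output through toxicity, this quantitative HTS measures ATP-based CellTiter-Glo luminescence in S16 Pmp22-F2sN Schwann cells after 24 h compound exposure at 37C.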
# On the % scale 0 is the no-effect control and ±100 the full control effect.
row,Compound,"activity change, negative = cytotoxicity"
1,CNc1ccc(-c2nc(-c3ccccc3C)no2)cc1[N+](=O)[O-],inactive: 15.3%
2,c1ccc(-c2cc3ncc4c(n3n2)-c2ccccc2OC4)cc1,inactive: -1.86%
3,O=C(Nc1c(C(=O)N2CCN(c3ccccc3F)CC2)oc2ccccc12)c1ccco1,inactive: -9.21%
4,COc1cccc(CNc2ncnc3onc(C)c23)c1,inactive: -13%
5,O=C(Cn1c(=O)n(Cc2ccco2)c(=O)c2oc3ccccc3c21)Nc1ccc(F)c(Cl)c1,inactive: -3.54%
6,COc1ccc(N(CC(=O)N2CCc3ccccc3C2)S(=O)(=O)c2ccc(C)cc2)cc1Cl,inactive: 7.5%
7,CCCc1ccc(S(=O)(=O)N2CCC(c3nnnn3-c3ccc(OC)cc3)CC2)cc1,inactive: -4.7%
8,Cc1oc2cc3oc(=O)c(CC(=O)N4CCCCC4)c(C)c3cc2c1C,inactive: 5.4%
9,CCOC(=O)c1ccc(NC(=O)c2cn(-c3ccccc3)nc2-c2ccc(C)cc2)cc1,inactive: 0.0191%
10,N#CC1=C2SCN(C3CCCCC3)CN2C(=O)CC1c1ccc(Br)cc1 (stereo not drawn),inactive: 28.2%
11,CCOc1cc(C#N)c(NC(=O)c2ccc(OC)c(S(=O)(=O)N3CCN(c4ccccc4)CC3)c2)cc1OCC,inactive: 0.39%
12,CCOc1ccc(-c2cc(NC(=O)c3cccc(Cl)c3)c(C(=O)OC)s2)cc1,inactive: -9.51%
13,CNC(=O)C(=O)NCC(c1ccc2c(c1)OCO2)N1CCOCC1 (stereo not drawn),inactive: -17.3%
14,COc1ccc(CNC(=O)C2=C(C)C(=O)OC23CCCCC3)cc1OC,inactive: 21.7%
15,O=C(c1ccc(F)cc1F)N1CCC(c2nc(-c3ccc(S(=O)(=O)N4CCCC4)cc3)no2)CC1,inactive: 15.8%
16,CC1=C(C(=O)Nc2ccccc2)C(c2ccc(C)cc2)n2nc(SCc3ccccc3C)nc2N1 (stereo not drawn),inactive: 3.66%
17,CCCOc1ccc(C(=O)Nc2nonc2-c2ccc(OCC)cc2)cc1,inactive: 10.8%
18,Cc1ccc(OCCCCn2cnc3ccccc32)cc1,inactive: -26.4%
19,COc1ccc(NC(=O)c2nnn(CC(=O)Nc3c(C)cc(C)cc3C)c2N)cc1OC,inactive: -0.0729%
20,Cc1ccc(C)c(CN2C(=O)c3ccccc3S(=O)(=O)c3ccc(C(=O)Nc4cc(F)ccc4F)cc32)c1,inactive: 7.05%
21,COc1ccc(CNC(=O)CN(c2ccc(C)cc2)S(=O)(=O)c2c(C)noc2C)cc1,inactive: 9.09%
22,COc1ccc(CNC(=O)C(CCSC)NS(=O)(=O)c2ccc3c(c2)oc(=O)n3C)cc1 (stereo not drawn),inactive: 3.36%
23,Fc1ccc(Nc2nc(SCc3cccc(Cl)c3)nc3ccccc23)cc1,inactive: -7.28%
24,COc1cc(Cl)c(C)cc1NC(=O)CCc1c(C)nc2c3cccnc3nn2c1C,inactive: -0.0472%

row,Compound,"activity change, negative = cytotoxicity"
1,CS(=O)(=O)c1ccccc1-c1nnc(NC(=O)c2ccc3c(c2)OCCO3)o1,inactive: -9.1%
2,COc1ccc(CNC(=O)CSc2n[nH]c(-c3ccc(F)cc3)n2)cc1,inactive: -8.39%
3,COC(=O)c1ccccc1NC(=O)c1cnn(-c2ccc(F)cc2)c1-n1cccc1,inactive: -6.32%
4,CCOc1ccc(-n2nc(CO)c(C(=O)NCc3ccccn3)n2)cc1,inactive: -9.35%
5,CCCN(CCC)CCNC(=O)CN1C(=O)COc2ccc(S(=O)(=O)N3CCOCC3)cc21,inactive: -11.1%
6,CCC(CC)C(=O)Nc1nnc(S(=O)(=O)N2CCc3ccccc32)s1,inactive: 3.6%
7,Cc1cccc(OCC(=O)NCCc2nc3ccccc3[nH]2)c1C,inactive: 11.4%
8,O=C(NCc1ccccc1Cl)C1CCN(C(=O)N2CCOc3ccccc32)CC1,inactive: -5.02%
9,COC(=O)CSc1nc2sc3c(c2c(=O)n1-c1ccc(C)cc1)CC(C(C)C)OC3 (stereo not drawn),inactive: 0.381%
10,CCN(CC)S(=O)(=O)c1ccc2c(c1)N(CC(=O)Nc1ccc(OC)cc1)C(=O)CS2,inactive: -7.12%
11,Cc1ccccc1CNC(=O)c1oc2c(c1C)-c1nn(Cc3ccc(Cl)cc3)cc1CC2,inactive: -15%
12,CCOc1ccc(Cl)cc1CNCCCSc1nnnn1C,inactive: 1.48%
13,CCOc1ccc(NC(=O)C2CCCN(c3cnccn3)C2)cc1 (stereo not drawn),inactive: 8.23%
14,COc1ccc(Br)cc1C(=O)Nc1ccc(-c2nc3ncccc3o2)cc1C,inactive: -0.194%
15,Cc1cccc(-n2c(N)cc(=O)nc2SCC(=O)Nc2ccc(F)cc2)c1C,inactive: -1.27%
16,CC(C)Cn1c(C2CC(=O)N(c3ccccc3Cl)C2)nc2ccccc21 (stereo not drawn),inactive: 20.3%
17,Cc1oc(-c2ccc(C(=O)NCCN(C)C)cc2)nc1CS(=O)(=O)c1ccccc1,inactive: 2.61%
18,O=C(Cn1nc(-c2ccccc2)nc(Cc2ccccc2)c1=O)Nc1ccc(Cl)cc1,inactive: 0.0039%
19,Cc1cccc(NC(=O)Cn2nnc(C(=O)NCc3ccco3)c2N)c1,inactive: 3.3%
20,Cc1ccc(C(=O)NCC(=O)OCc2cc(=O)n3ccsc3n2)cc1,inactive: 3.93%
21,CCc1ccc(NC(=O)CSc2ccc3nc(-c4ccc(OC)cc4)cn3n2)cc1,inactive: -6.01%
22,CCC(=O)N1CCc2cc(Br)cc(S(=O)(=O)N3CCC(C(=O)Nc4ccccc4F)CC3)c21,inactive: -5.75%
23,CCOC(=O)CCC(=O)Nc1nnc2n1CCS2,inactive: 15.1%
24,CC(=O)N1CCc2cc(S(=O)(=O)NC(CC(C)C)C(=O)NCc3ccccc3Cl)ccc21 (stereo not drawn),inactive: -4.38%

# Source: PubChem BioAssay AID1508642 (National Center for Advancing Translational Sciences (NCATS), 2021)
